Measurements reported in the supplement of paper PMC7826260.
Some of the results follow. Cleavage of a single-stranded DNA pool by Rep nickase domains was read by sequencing (1 h at 37 °C, 3 µM enzyme); the outer parts of the 90-letter strands are left off. Numbers give uncut DNA relative to the enzyme-free pool, as log2; uncut sequences lie near 0, cut ones below; no hit call is given. Counts are relative to all reads, so uncut sequences can rise above 0 when many others are cut.

Legend:
Assay in all cases: uncleaved DNA left, log2 of reads against the no-enzyme library (log2 ratio); higher = less cleavage (more negative = more Rep cleavage of the k-mer); sequences stand for … in CTCGTCCG…ACCGGAGA
[1] = system: T1, Rep nickase domain of Muscovy duck circovirus
T1 sequence (residues 1-111, tag not shown): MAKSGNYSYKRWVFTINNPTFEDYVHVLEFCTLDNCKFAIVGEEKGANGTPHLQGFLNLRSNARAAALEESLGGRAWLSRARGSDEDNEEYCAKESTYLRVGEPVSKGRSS
Description: (§1)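 A pool of 90-nt single-stranded DNAs with seven random bases just before the constant AC of the nick site (name = the seven bases) was cut by 3 µM recombinant His6-SUMO-tagged Rep nickase domain (300 nM DNA, 50 mM HEPES pH 8.0, 50 mM NaCl, 1 mM MnCl2, 1 h, 37 °C, three replicates). Uncut DNA was amplified and sequenced.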

[2] = system: T2, Rep nickase domain of banana bunchy top virus
T2 sequence (residues 1-94, tag not shown): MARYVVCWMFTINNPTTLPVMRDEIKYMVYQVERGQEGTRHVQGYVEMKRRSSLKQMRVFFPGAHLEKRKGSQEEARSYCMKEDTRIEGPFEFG
Description: as §1

[3] = system: T3, Rep nickase domain of cabbage leaf curl virus
T3 sequence (residues 1-116, tag not shown): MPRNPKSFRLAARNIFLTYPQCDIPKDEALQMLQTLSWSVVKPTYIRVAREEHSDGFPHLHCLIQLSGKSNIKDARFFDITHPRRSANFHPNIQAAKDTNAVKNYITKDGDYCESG
Description: as §1

[4] = system: T4, Rep nickase domain of chickpea chlorotic dwarf virus
T4 sequence (residues 1-124, tag not shown): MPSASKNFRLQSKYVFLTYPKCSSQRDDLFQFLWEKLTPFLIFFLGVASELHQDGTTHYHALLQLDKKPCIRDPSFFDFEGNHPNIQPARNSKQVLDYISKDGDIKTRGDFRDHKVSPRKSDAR
Description: as §1

[5] = system: T5, Rep nickase domain of faba bean necrotic yellows virus
T5 sequence (residues 1-98, tag not shown): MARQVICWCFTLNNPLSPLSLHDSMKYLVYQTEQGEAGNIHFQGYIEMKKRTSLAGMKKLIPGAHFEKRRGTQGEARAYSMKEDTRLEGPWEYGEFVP
Description: as §1

[6] = system: T6, Rep nickase domain of maize striate mosaic virus
T6 sequence (residues 1-117, tag not shown): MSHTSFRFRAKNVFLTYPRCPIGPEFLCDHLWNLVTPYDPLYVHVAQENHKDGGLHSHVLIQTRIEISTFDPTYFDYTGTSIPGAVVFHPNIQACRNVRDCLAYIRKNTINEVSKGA
Description: as §1

[7] = system: T7, Rep nickase domain of porcine circovirus 2
T7 sequence (residues 2-116, tag not shown): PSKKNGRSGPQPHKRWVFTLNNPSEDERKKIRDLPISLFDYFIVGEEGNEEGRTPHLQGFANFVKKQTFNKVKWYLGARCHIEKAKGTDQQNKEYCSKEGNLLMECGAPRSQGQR
Description: as §1

[8] = system: T8, Rep nickase domain of tomato golden mosaic virus
T8 sequence (residues 1-124, tag not shown): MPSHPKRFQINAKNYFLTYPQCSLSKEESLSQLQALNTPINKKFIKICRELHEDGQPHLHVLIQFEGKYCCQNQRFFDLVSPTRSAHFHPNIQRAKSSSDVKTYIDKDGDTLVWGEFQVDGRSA
Description: as §1

[9] = system: T9, Rep nickase domain of tomato yellow leaf curl virus
T9 sequence (residues 1-136, tag not shown): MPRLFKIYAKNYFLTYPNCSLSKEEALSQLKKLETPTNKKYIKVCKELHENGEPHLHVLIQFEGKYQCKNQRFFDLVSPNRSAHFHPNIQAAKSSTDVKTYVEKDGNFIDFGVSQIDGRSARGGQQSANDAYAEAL
Description: as §1

[10] = system: T10, Rep nickase domain of wheat dwarf virus
T10 sequence (residues 1-137, tag not shown): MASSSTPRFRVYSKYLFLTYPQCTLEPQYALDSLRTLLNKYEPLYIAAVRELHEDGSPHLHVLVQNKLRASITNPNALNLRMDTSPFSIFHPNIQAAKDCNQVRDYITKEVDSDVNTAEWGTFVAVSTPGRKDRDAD
Description: as §1

Sequence | uncleaved DNA left (log2) [1] | uncleaved DNA left (log2) [2] | uncleaved DNA left (log2) [3] | uncleaved DNA left (log2) [4] | uncleaved DNA left (log2) [5] | uncleaved DNA left (log2) [6] | uncleaved DNA left (log2) [7] | uncleaved DNA left (log2) [8] | uncleaved DNA left (log2) [9] | uncleaved DNA left (log2) [10]
ACATCGC | 0.0276 | -0.191 | -0.826 | -0.679 | -0.0896 | -1.29 | 0.0912 | 0.0606 | -0.0915 | -0.119
TCAGAGG | 0.0904 | 0.118 | 0.382 | 1.05 | -0.0101 | 0.965 | 0.166 | 0.242 | 0.0115 | -0.0392
TTAAGGC | 0.113 | 0.105 | -0.726 | -2.04 | 0.034 | 0.304 | 0.108 | 0.0855 | 0.0725 | -0.0349
TTGCGCG | -0.188 | -0.0589 | -1.01 | 0.145 | -0.0569 | -0.959 | -0.245 | -0.0708 | -0.228 | -0.167
AGCCTCG | -0.0483 | -0.0714 | -0.485 | -0.391 | -0.138 | -0.77 | 0.0651 | -0.017 | -0.0182 | -0.161
AGCGTAC | -0.0824 | -0.0546 | -0.0419 | 0.349 | -0.0659 | 0.819 | -0.0522 | -0.0379 | -0.0237 | -0.0184
CCACGTC | -0.0395 | -0.0952 | -0.0312 | -0.319 | -0.0737 | -0.855 | -0.0716 | -0.113 | -0.0281 | -0.155
CACACGG | 0.176 | 0.143 | 0.522 | 1.35 | -0.0263 | 1.45 | 0.214 | 0.14 | 0.0395 | 0.15
TGACCGA | -0.11 | -0.045 | 0.0557 | 0.284 | -0.0335 | 0.531 | 0.0243 | -0.103 | -0.0564 | 0.109
CGGGTGA | -0.00479 | -0.0192 | 0.119 | 0.584 | 0.0128 | 1.18 | 0.0057 | 0.0502 | -0.0112 | 0.00343
GAAATTA | 0.0288 | 0.102 | 0.194 | -0.427 | 0.0547 | 0.914 | -0.0291 | 0.0416 | 0.209 | 0.128
GGAGAAA | 0.178 | 0.269 | 0.863 | 1.81 | 0.132 | 2.18 | 0.307 | 0.244 | 0.329 | 0.412
TTGGACT | 0.00708 | 0.104 | 0.625 | 1.24 | -0.0524 | 1.9 | 0.153 | -0.0752 | 0.0569 | 0.107
GACGCAT | -0.0217 | 0.0394 | 0.418 | 0.617 | -0.02 | 1.32 | 0.147 | -0.1 | 0.00244 | 0.105
GCCGTTT | -0.0225 | -0.162 | 0.201 | -0.534 | -0.0778 | 0.228 | -0.178 | -0.0306 | -0.0698 | -0.193
GACACTA | 0.0361 | -0.0184 | 0.191 | -0.539 | -0.108 | 0.707 | -0.0321 | -0.0938 | 0.0564 | 0.153
CTGAATC | 0.141 | 0.0623 | -0.00889 | 0.2 | -0.0738 | -0.321 | 0.148 | -0.114 | -0.0172 | 0.128
TAGCGCT | -0.0565 | -0.105 | -0.353 | -1.31 | -0.133 | -0.446 | -2.69 | -0.0316 | -0.0676 | -0.172
TAAACTG | 0.111 | 0.047 | -0.0243 | 0.427 | -0.00884 | 1.28 | 0.0997 | 0.0708 | -0.0399 | 0.0796
CTCGACT | 0.0194 | -0.0804 | 0.0853 | -0.328 | -0.0186 | 0.862 | -0.516 | -0.0167 | 0.0651 | 0.0492
ATTGGAC | -0.0812 | -0.0477 | 0.319 | 1.1 | -0.11 | 1.16 | 0.0928 | -0.0408 | -0.0638 | 0.0569
TTTCTCG | -0.124 | -0.0352 | -0.755 | -0.646 | -0.11 | -1.11 | 0.0926 | -0.106 | -0.0398 | -0.26
GATTTTG | -0.000314 | 0.117 | -0.154 | -0.278 | 0.0921 | -1.02 | 0.103 | 0.011 | 0.00271 | -0.0764
CTACGCG | 0.0284 | 0.137 | -0.815 | -0.361 | 0.1 | -0.684 | 0.224 | 0.11 | 0.144 | 0.0392
TTTAACT | 0.0226 | 0.0461 | -0.382 | -2.66 | 0.0453 | -0.459 | -1.31 | -0.0908 | -0.0291 | -0.0712
TGGACAG | 0.0355 | 0.0717 | 0.829 | 2.02 | -0.0586 | 2.16 | 0.187 | -0.0114 | -0.0432 | 0.237
GGATTCC | -0.0909 | 0.0108 | 0.592 | 1.41 | -0.129 | 1.88 | -0.074 | -0.0696 | 0.0581 | 0.0177
AAATCCT | -3.78 | -0.186 | -3.84 | -3.47 | -0.0153 | -2.91 | -3.97 | -3.64 | -0.233 | -3.7
TTCTTAG | 0.0564 | -0.102 | -0.884 | -0.827 | -0.0407 | -1.24 | 0.1 | -0.0667 | -0.0373 | -0.092
CGCTCAA | -0.0734 | -0.0596 | -0.0145 | -0.105 | -0.0286 | -0.494 | -0.0729 | -0.0727 | -0.0224 | -0.000677
